The other results are listed elsewhere or left out.
T1: UNK ZnF1-6 (called full-length) (human, UniProt Q9C0B0 30-357)
T1 sequence: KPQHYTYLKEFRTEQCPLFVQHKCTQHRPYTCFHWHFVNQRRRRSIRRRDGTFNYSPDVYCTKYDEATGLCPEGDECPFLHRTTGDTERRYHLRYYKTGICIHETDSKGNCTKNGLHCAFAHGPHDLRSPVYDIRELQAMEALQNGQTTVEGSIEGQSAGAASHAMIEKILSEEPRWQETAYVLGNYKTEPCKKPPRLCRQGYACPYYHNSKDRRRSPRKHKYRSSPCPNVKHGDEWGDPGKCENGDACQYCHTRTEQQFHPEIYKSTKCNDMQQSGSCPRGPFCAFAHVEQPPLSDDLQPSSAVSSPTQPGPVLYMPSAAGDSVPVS

B1: chr12:56204332:56204433:-|3pUTR|ENSG00000181852|unk|FALSE|unique (ssRNA)
RNA: GGGAGUUCUACAGUCCGACGAUCUUUUGCCUUUCUCUCACCUUAAUUCCCUUUCUUCCUUACUUUGUUACCUACCCUUAUCUUAGUGCUAACUUCUCUUUCAGGAGGAUGUCUGGGAGUAGUGUGCACUUCACAGCUGCUUUCCAACAGAGGAUUGAGCAUCA
B2: chr5:43295829:43295944:-|CDS|ENSG00000112972|unk|FALSE|unique (ssRNA)
RNA: GGGAGUUCUACAGUCCGACGAUCAAUAUCCUAGCUUUAUUCUAAAGUCAAACUUUAAAAUUUCAUGGCUUAUAUGAAUUUCAUAGUUUCCUUGGACUUCUCUUUCAGAGGGAAAUGAUAAAGAUUUUACCUUGAAUGAUUUUGCAACAGAGGAUUGAGCAUCA
B3: chr5:151662744:151662768:-|3pUTR|ENSG00000113140|msi1_unk|total|mutant (ssRNA)
RNA: GGGAGUUCUACAGUCCGACGAUCGGGGCUCCCGGGACUGCCAGGCUGUUUCAGCCAGGAAGGCCAAAAUCAAGAGUGAGAUGCCGAAAGUUGUAAAACCGAAAAAGUGGAGUUGGUGAAUCGGUUGUUCUUUCCUCACAUUUGCAACAGAGGAUUGAGCAUCA
B4: chr5:41382290:41382405:-|CDS|ENSG00000182836|unk|total|mutant (ssRNA)
RNA: GGGAGUUCUACAGUCCGACGAUCGGCCAAAAAGCUCAUGCGGAAAUGGUCCGCCACUCAGACAAUGAAUUUUACUGGCCAGCCCGGAGCUGGAAUUCGUUAUUUUGAUCUUCGAAUUUCCACCAAGCCCAGAGACCCCGACAACAACAGAGGAUUGAGCAUCA
B5: chr19:7477204:7477436:-|CDS|ENSG00000104883|control|control|control (ssRNA)
RNA: GGGAGUUCUACAGUCCGACGAUCCAACGCCGUGCACUGGCUGCCCCGGGGCGUGCUGUGGGCCGGCCGCUUCCCGCCGUGGCUAGUGGGCCUCAUGGGCACCAUCUCCUCAAUCCUCAGCAUGUACCAGGCGGCCCGGGCCGGCAACAGAGGAUUGAGCAUCA
B6: ENSG00000180660:stop:overlap|stop_codon|ENSG00000180660|stop_codon|NA|stop_codon (ssRNA)
RNA: GGGAGUUCUACAGUCCGACGAUCAACAAACGUGGCGACUGGCAAGAGAGAUCCUGACCAACCCGAAAAGUUUGGAAAAACUUUAGAGGAUGAUUUAAUCAAGAGCCGAAAUUAUUACCCUUCUCAAAGUCCUUAUUAAGUGUACAACAGAGGAUUGAGCAUCA
B7: chr7:17792983:17793084:-|3pUTR|ENSG00000071189|msi1|total|mutant (ssRNA)
RNA: GGGAGUUCUACAGUCCGACGAUCGACAUGCCUCCGGUAACUGCAGAAACCGCAAAUUAAAUGAUUAAUGAGCUUAUCCGUCACCGUAAACAUACAGAUUCCUAAUUCUAUGACAGUGUACAUAUAUGAAAAUAAAUGAUGAAACAACAGAGGAUUGAGCAUCA
B8: chr4:152882748:152882856:+|CDS|ENSG00000164144|unk|total|mutant (ssRNA)
RNA: GGGAGUUCUACAGUCCGACGAUCCAGAAACUGCUGGCUAAAAAUGGAGAGACUCUUCUUGGGGCCAUUAAUUUUUUCAUUGCCCGUGUGAACACUUUGGUGAAUAAAACCAUUGAAGAUACAUUAAUGACUGUGAAACAGUAUCAACAGAGGAUUGAGCAUCA
B9: chr2:37227669:37227839:-|CDS|ENSG00000115816|unk|total|mutant (ssRNA)
RNA: GGGAGUUCUACAGUCCGACGAUCGUUUACUUUUGCUUUUUUCGGACUUGUGUCAAAAAAAAAGAUGUUGAAUCAAAAAUGCUCCGCGCCCUUUUAACAGGUGUGAACCGGGCAUACCCUUAUUCCCAGACUGGUGAUGACAAACAACAGAGGAUUGAGCAUCA
B10: chr17:79086671:79086772:+|3pUTR|ENSG00000167280|msi1|FALSE|unique (ssRNA)
RNA: GGGAGUUCUACAGUCCGACGAUCAUAGGCUGCAAGAUGCUGAUGCCGAGAAUGAUGAUUUUCUUUCCUGCAGAUGAAACUAUUAGAAAGGGUCUUAGAUUGUGGCAGGUAGGCUUUGGAGCAGGCGCCGAGACAUUUCUGAGCCAACAGAGGAUUGAGCAUCA
B11: ENSG00000056277:stop:overlap|stop_codon|ENSG00000056277|stop_codon|NA|stop_codon (ssRNA)
RNA: GGGAGUUCUACAGUCCGACGAUCUAGAGAAUGUUUCCAAAAGUACCUCAACUUCUGAACCCACUACUGGCUGCUCAUUGAAAUAGAUUCCUGCUCCAUGGAGUUCAUGCAACCUGGUGCAAGACAAGUUGGAAGUUCCUAAGUCAACAGAGGAUUGAGCAUCA
B12: chr11:65967286:65967395:+|CDS|ENSG00000175467|unk|FALSE|unique (ssRNA)
RNA: GGGAGUUCUACAGUCCGACGAUCGACCUUUAAAAAGACCAAGCGGAGGGUGAAGAAAAUCCGCAAGAAGGAGAAGGAGGUAGUAGUGCGGGCAGAUGACUUGCUGCCUCUCGGGGACCAGACUCAGGAUGGGGACUUUGGUUCCAACAGAGGAUUGAGCAUCA
B13: chr15:73560698:73560803:-|3pUTR|ENSG00000156642|msi1_unk|FALSE|overlapping (ssRNA)
RNA: GGGAGUUCUACAGUCCGACGAUCUUUUGGGCUUGAUGUGCUGUGAAUGUUGCUUUUUUUUUUCCUUUGUUAAAAUAUUUAAAUAGAAGUGAAAAGGUCCUCUGAGGAUCAGAUCAUGCAUGCGCCAUUUUUUACUUAAUGCAGCAACAGAGGAUUGAGCAUCA
B14: ENSG00000176463:stop:overlap|stop_codon|ENSG00000176463|stop_codon|NA|stop_codon (ssRNA)
RNA: GGGAGUUCUACAGUCCGACGAUCCAAAGUUUAUCUAUAACCUGGAAGACCAUGAGUGGUGUGAAAACAUGGAGUCCGUUUUAUAGUGACUAAAGGAGGGCUGAACUCUGUAUUAGUAAUCCAAGGGUCAUUUUUUUCUUAAAACAACAGAGGAUUGAGCAUCA

The binders below were run against T1, UNK ZnF1-6 (called full-length) (assay: nsRBNS (natural sequence RNA bind-n-seq); RBNS binding buffer (assumed for nsRBNS): 25 mM Tris pH 7.5, 150 mM KCl, 3 mM MgCl2, 0.01% Triton X-100, 500 ug/ml BSA, 20 U/ml SUPERase-In, 4 C; UNK is unkempt and MSI1 is Musashi-1; names of the RNAs are library labels; protein concentration not given here; high values mean tight binding).

Binder	binding signal
B1	0.723 enrichment R
B2	0.69 enrichment R
B3	0.749 enrichment R
B4	0.445 enrichment R
B5	0.86 enrichment R
B6	0.417 enrichment R
B7	0.426 enrichment R
B8	0.385 enrichment R
B9	0.438 enrichment R
B10	0.829 enrichment R
B11	0.586 enrichment R
B12	1.38 enrichment R
B13	0.991 enrichment R
B14	0.874 enrichment R

Reference: paper PMC12136788
